{"source": "the supplement of paper PMC7125110", "parents": {"B1": {"name": "glmS ribozyme (parent)", "chain": "AUAAAAGCGCCAGAACUACAGAAAUGUAGUUGACGAGGAGGAGGUUUAUCGAAUUUUCGGCGGAUGCCUCCAAA"}}, "note": "± gives the standard error. Variants at the background level are over-represented here."}
{"variants_of": "B1", "assay": "self-cleavage kobs at 160 uM GlcN6P; higher = faster cleavage; RNA array", "details": "with glucosamine-6-phosphate", "outline": "(§1)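 Tracking of barcoded ribozyme variants used a hybridised Cy3 probe at 37 °C, after in situ transcription by E. coli RNA polymerase on sequenced MiSeq chips. The flowed solution held 40 μM to 10 mM glucosamine-6-phosphate in HEPES/KCl/Mg(OAc)2 buffer, and imaging ran over ~14 h. kobs was taken from exponential decay fits of normalised per-tile medians, and kcat and KM from weighted Michaelis–Menten fits.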", "units": {"self-cleavage kobs at 160 uM GlcN6P": "s⁻¹"}}
{"variant": "U31G U47G A48G", "self-cleavage kobs at 160 uM GlcN6P": "< 1e-05"}
{"variant": "U46C U49A C68G C71A", "self-cleavage kobs at 160 uM GlcN6P": "< 1e-05"}
{"variant": "G40C A64G", "self-cleavage kobs at 160 uM GlcN6P": "4.29e-05 ± 1.9e-05"}
{"variant": "A48G G59A", "self-cleavage kobs at 160 uM GlcN6P": "< 1e-05"}
{"variant": "A48U G62U A64G", "self-cleavage kobs at 160 uM GlcN6P": "< 1e-05"}
{"variant": "U31G G32C G38A", "self-cleavage kobs at 160 uM GlcN6P": "< 1e-05"}
{"variant": "U31G G37A A39U U46G G51A", "self-cleavage kobs at 160 uM GlcN6P": "< 1e-05"}
{"variant": "C50G A52G", "self-cleavage kobs at 160 uM GlcN6P": "3.58e-05 ± 1.7e-05"}
{"variant": "G35A G38U", "self-cleavage kobs at 160 uM GlcN6P": "< 1e-05"}
{"variant": "A48C G63C", "self-cleavage kobs at 160 uM GlcN6P": "< 1e-05"}
{"variant": "G41U C58U G59A C70U", "self-cleavage kobs at 160 uM GlcN6P": "< 1e-05"}
{"variant": "G38C A48U C67A", "self-cleavage kobs at 160 uM GlcN6P": "< 1e-05"}
{"variant": "G40C G51C", "self-cleavage kobs at 160 uM GlcN6P": "< 1e-05"}
{"variant": "A42C U45G C68U", "self-cleavage kobs at 160 uM GlcN6P": "< 1e-05"}
{"variant": "A52G C61A", "self-cleavage kobs at 160 uM GlcN6P": "< 1e-05"}
{"variant": "G32U G41C A48U", "self-cleavage kobs at 160 uM GlcN6P": "< 1e-05"}
{"variant": "U31C G38C A42G C71G", "self-cleavage kobs at 160 uM GlcN6P": "< 1e-05"}
{"variant": "U31C A64U U65A", "self-cleavage kobs at 160 uM GlcN6P": "< 1e-05"}
{"variant": "A53C U54G A64C", "self-cleavage kobs at 160 uM GlcN6P": "< 1e-05"}
{"variant": "G35C A39C G51U", "self-cleavage kobs at 160 uM GlcN6P": "< 1e-05"}
{"variant": "G40A C58A G66U", "self-cleavage kobs at 160 uM GlcN6P": "< 1e-05"}
{"variants_of": "B1", "assay": "self-cleavage kobs at 2500 uM GlcN6P; higher = faster cleavage; RNA array", "details": "with glucosamine-6-phosphate", "outline": "as §1", "units": {"self-cleavage kobs at 2500 uM GlcN6P": "s⁻¹"}}
{"variant": "U46C U49A C68G C71A", "self-cleavage kobs at 2500 uM GlcN6P": "< 1e-05"}
{"variant": "A6C A39C G60U", "self-cleavage kobs at 2500 uM GlcN6P": "< 1e-05"}
{"variant": "G40C A64G", "self-cleavage kobs at 2500 uM GlcN6P": "0.000837 ± 0.00017"}
{"variant": "A12G C16U U69G", "self-cleavage kobs at 2500 uM GlcN6P": "6.28e-05 ± 2.8e-05"}
{"variant": "C11G G29A G35A U69A", "self-cleavage kobs at 2500 uM GlcN6P": "< 1e-05"}
{"variant": "A12G A15U G63A", "self-cleavage kobs at 2500 uM GlcN6P": "< 1e-05"}
{"variant": "G9C A14C G40A C61A", "self-cleavage kobs at 2500 uM GlcN6P": "< 1e-05"}
{"variant": "A6U C16A G29A A42G C71A", "self-cleavage kobs at 2500 uM GlcN6P": "< 1e-05"}
{"variant": "C10A G13U G43U", "self-cleavage kobs at 2500 uM GlcN6P": "< 1e-05"}
{"variant": "G9U G35C G51C U65A", "self-cleavage kobs at 2500 uM GlcN6P": "< 1e-05"}
{"variant": "C11U C34U A42U A48G U56G", "self-cleavage kobs at 2500 uM GlcN6P": "< 1e-05"}
{"variant": "A48G G59A", "self-cleavage kobs at 2500 uM GlcN6P": "6.29e-05 ± 1.8e-05"}
{"variant": "A48U G62U A64G", "self-cleavage kobs at 2500 uM GlcN6P": "< 1e-05"}
{"variant": "G9A C34U G35U G37C", "self-cleavage kobs at 2500 uM GlcN6P": "< 1e-05"}
{"variant": "C11A C16A G29U G43U C70U", "self-cleavage kobs at 2500 uM GlcN6P": "< 1e-05"}
{"variant": "A6U G13A A14C A42C G60A C71A", "self-cleavage kobs at 2500 uM GlcN6P": "< 1e-05"}
{"variant": "C11A A12U U45G U55A C70U", "self-cleavage kobs at 2500 uM GlcN6P": "7.5e-05 ± 3.1e-05"}
{"variant": "G9U G41C G59A C71U", "self-cleavage kobs at 2500 uM GlcN6P": "< 1e-05"}
{"variant": "A6U C8G C34U A53C G66C C67A", "self-cleavage kobs at 2500 uM GlcN6P": "< 1e-05"}
{"variant": "A6G U55A C61G", "self-cleavage kobs at 2500 uM GlcN6P": "< 1e-05"}
{"variant": "C8A A14U A42U", "self-cleavage kobs at 2500 uM GlcN6P": "< 1e-05"}
{"variant": "A6C U47C U54G C61G", "self-cleavage kobs at 2500 uM GlcN6P": "< 1e-05"}
{"variant": "G7C U31A G63U C70G", "self-cleavage kobs at 2500 uM GlcN6P": "< 1e-05"}
{"variant": "U31G G32C G38A", "self-cleavage kobs at 2500 uM GlcN6P": "< 1e-05"}
{"variant": "A12C G44C U65C", "self-cleavage kobs at 2500 uM GlcN6P": "< 1e-05"}
{"variant": "C11A A36U A52G A53G G63A", "self-cleavage kobs at 2500 uM GlcN6P": "< 1e-05"}
{"variant": "C10G A14C G37A C70G", "self-cleavage kobs at 2500 uM GlcN6P": "< 1e-05"}
{"variant": "C50G A52G", "self-cleavage kobs at 2500 uM GlcN6P": "3.29e-05 ± 1.4e-05"}
{"variant": "C11G A15G A39C G40A", "self-cleavage kobs at 2500 uM GlcN6P": "< 1e-05"}
{"variant": "C8G A33U U56G G59U", "self-cleavage kobs at 2500 uM GlcN6P": "< 1e-05"}
{"variant": "C10U A15C G32U G43A", "self-cleavage kobs at 2500 uM GlcN6P": "< 1e-05"}
{"variant": "G7U A52U U55C", "self-cleavage kobs at 2500 uM GlcN6P": "< 1e-05"}
{"variant": "A48C G63C", "self-cleavage kobs at 2500 uM GlcN6P": "< 1e-05"}
{"variant": "G38C A48U C67A", "self-cleavage kobs at 2500 uM GlcN6P": "< 1e-05"}
{"variant": "G40C G51C", "self-cleavage kobs at 2500 uM GlcN6P": "< 1e-05"}
{"variant": "G9C U31A G38U U56C", "self-cleavage kobs at 2500 uM GlcN6P": "< 1e-05"}
{"variant": "C8A G59A C70U", "self-cleavage kobs at 2500 uM GlcN6P": "< 1e-05"}
{"variant": "C10G G29U A36C A39C U65A", "self-cleavage kobs at 2500 uM GlcN6P": "< 1e-05"}
{"variant": "G7A G44U G51A", "self-cleavage kobs at 2500 uM GlcN6P": "< 1e-05"}
{"variant": "A6U A53U", "self-cleavage kobs at 2500 uM GlcN6P": "0.000114 ± 1.6e-05"}
{"variant": "A12C U31C G43U", "self-cleavage kobs at 2500 uM GlcN6P": "< 1e-05"}
{"variant": "G7A G51A C71G", "self-cleavage kobs at 2500 uM GlcN6P": "< 1e-05"}
{"variant": "A42C U45G C68U", "self-cleavage kobs at 2500 uM GlcN6P": "< 1e-05"}
{"variant": "C11U A39G G40A A42G A48U C67A", "self-cleavage kobs at 2500 uM GlcN6P": "< 1e-05"}
{"variant": "G7A A15C A48C G62C", "self-cleavage kobs at 2500 uM GlcN6P": "< 1e-05"}
{"variant": "G9A G13C G51A", "self-cleavage kobs at 2500 uM GlcN6P": "< 1e-05"}
{"variant": "C10U A14C G41U U56C", "self-cleavage kobs at 2500 uM GlcN6P": "< 1e-05"}
{"variant": "C10G U30A C61U", "self-cleavage kobs at 2500 uM GlcN6P": "< 1e-05"}
{"variant": "A6G G43A U49A G59U", "self-cleavage kobs at 2500 uM GlcN6P": "< 1e-05"}
{"variant": "U31C G38C A42G C71G", "self-cleavage kobs at 2500 uM GlcN6P": "< 1e-05"}
{"variant": "C10G G62U C70G", "self-cleavage kobs at 2500 uM GlcN6P": "< 1e-05"}
{"variant": "C8A C16U A33U C68U", "self-cleavage kobs at 2500 uM GlcN6P": "< 1e-05"}
{"variant": "C11G G41U A48C C70G", "self-cleavage kobs at 2500 uM GlcN6P": "< 1e-05"}
{"variant": "G9U A48U C58A G66U", "self-cleavage kobs at 2500 uM GlcN6P": "< 1e-05"}
{"variant": "C11U C34A U47A C50A G51U", "self-cleavage kobs at 2500 uM GlcN6P": "< 1e-05"}
{"variant": "A6U A15C G38U", "self-cleavage kobs at 2500 uM GlcN6P": "< 1e-05"}
{"variant": "G35C A39C G51U", "self-cleavage kobs at 2500 uM GlcN6P": "< 1e-05"}
{"variant": "A12C G41C C50G", "self-cleavage kobs at 2500 uM GlcN6P": "< 1e-05"}
{"variant": "A6U A42G A48U", "self-cleavage kobs at 2500 uM GlcN6P": "< 1e-05"}
{"variant": "G40A C58A G66U", "self-cleavage kobs at 2500 uM GlcN6P": "< 1e-05"}
{"variant": "A6C G29A A36C G62A A64U", "self-cleavage kobs at 2500 uM GlcN6P": "< 1e-05"}
{"variant": "G7A A12G G62A G63U", "self-cleavage kobs at 2500 uM GlcN6P": "< 1e-05"}
{"variants_of": "B1", "assay": "self-cleavage kobs at 10000 uM GlcN6P; higher = faster cleavage; RNA array", "details": "with glucosamine-6-phosphate", "outline": "as §1", "units": {"self-cleavage kobs at 10000 uM GlcN6P": "s⁻¹"}}
{"variant": "U46C U49A C68G C71A", "self-cleavage kobs at 10000 uM GlcN6P": "< 1e-05"}
{"variant": "G40C A64G", "self-cleavage kobs at 10000 uM GlcN6P": "0.000811 ± 9.3e-05"}
{"variant": "C11A A12U U45G U55A C70U", "self-cleavage kobs at 10000 uM GlcN6P": "0.000245 ± 5.6e-05"}
{"variant": "G9U G41C G59A C71U", "self-cleavage kobs at 10000 uM GlcN6P": "< 1e-05"}
{"variant": "G7U A52U U55C", "self-cleavage kobs at 10000 uM GlcN6P": "< 1e-05"}
{"variant": "A6U A53U", "self-cleavage kobs at 10000 uM GlcN6P": "0.000159 ± 2.3e-05"}
{"variant": "G9A G13C G51A", "self-cleavage kobs at 10000 uM GlcN6P": "< 1e-05"}
{"variant": "A52G C61A", "self-cleavage kobs at 10000 uM GlcN6P": "< 1e-05"}
